In the supplement of paper PMC12009370:
Some of the results follow. Single values are uncertain, as repeats are few or missing.

Tested on: SK-N-AS
Assay: drug sensitivity score (DSS), single drug with vehicle (DSS (score)); higher = more cytotoxic; extreme values may be limits of the assay
Conditions: 72 h; co-treatment: vehicle (DMSO)
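Wherever drug sensitivity score (DSS) in combination with SL-176 is given: cells in 384-well plates, luminescence read-out, each screening drug at five concentrations, DSS derived from the fitted concentration-response curve combining IC50 with minimum and maximum inhibition.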
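Wherever drug sensitivity score (DSS), single drug with vehicle is given: 384-well screen with five concentrations per compound and a luminescence read-out, DSS computed from the fitted dose-response curve combining IC50 with minimum and maximum inhibition.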

Row | SMILES | drug sensitivity score
1 | Nc1ncnc2c1c(COc1cccc(Cl)c1)nn2C1CCOCC1 | 0
2 | CCOc1ccn(-c2ccc(F)cc2)c(=O)c1C(=O)Nc1ccc(Oc2ccnc(N)c2Cl)c(F)c1 | 0
3 | NC(=O)c1cccc(-c2cccc(OC(=O)NC3CCCCC3)c2)c1 | 0
4 | CN(C(=O)c1ccc(F)cc1C(F)(F)F)C1CCN(c2nnc(-c3ccnn3C)c3ccccc23)CC1 [Taladegib] | 0
5 | C[C@]1(c2nc3c(C(N)=O)cccc3[nH]2)CCCN1 [Veliparib] | 0
6 | Nc1ncn([C@@H]2O[C@H](CO)[C@@H](O)[C@H]2O)c(=O)n1 [Azacitidine] | 5.7
7 | O=C(O)c1ccc(CN2CCC(CN[C@@H]3C[C@H]3c3ccccc3)CC2)cc1 | 0
8 | CN(C)Cc1c(C(=O)NCCOc2ccc(C(=O)NO)cc2)oc2ccccc12 [Abexinostat] | 17.3
9 | CCCCNc1ncc(C(=O)NCc2ccc(-n3ccnc3)cc2)c(NC2CCC(O)CC2)n1 (configuration not stated) | 1.1
10 | CN(C)C(=O)c1cc2cnc(Nc3ccc(N4CCNCC4)cn3)nc2n1C1CCCC1 [Ribociclib] | 6.9
11 | Cc1ccc(NS(=O)(=O)c2cccc(C#N)c2)c2[nH]cc(C#N)c12 | 18.7
12 | COc1cccc2c1C(=O)c1c(O)c3c(c(O)c1C2=O)C[C@@](O)(/C(CO)=N/NC(=O)CCCCCN1C(=O)C=CC1=O)C[C@@H]3O[C@H]1C[C@H](N)[C@H](O)[C@H](C)O1 [Aldoxorubicin] | 8.1
13 | NC1(c2ccc(-c3nc4ccn5c(=O)[nH]nc5c4cc3-c3ccccc3)cc2)CCC1 | 2.9
14 | O=C(/C=C/c1cccnc1)NCCCCC1CCN(C(=O)c2ccccc2)CC1 [Daporinad] | 30
15 | CCN(CC)CCNC(=O)c1c(C)[nH]c(/C=C2\C(=O)Nc3ccc(F)cc32)c1C [Sunitinib] | 2.8
16 | CNCc1ccc(-c2[nH]c3cc(F)cc4c3c2CCNC4=O)cc1 [Rucaparib] | 0
17 | Cc1cc(F)c(C(=O)Nc2cccc(-c3nncn3C(C)C)n2)cc1-n1cnc(C2CC2)c1 [Selonsertib] | 0
18 | C[C@@H]1CN(Cc2ccc(F)cc2)[C@@H](C)CN1C(=O)c1cc2c(C(=O)C(=O)N(C)C)cn(C)c2cc1Cl [Talmapimod] | 0
19 | CC(=O)O[C@H]1C(=O)[C@@]2(C)[C@H]([C@H](OC(=O)c3ccccc3)[C@]3(O)C[C@H](OC(=O)[C@H](O)[C@@H](NC(=O)c4ccccc4)c4ccccc4)C(C)=C1C3(C)C)[C@]1(OC(C)=O)CO[C@@H]1C[C@@H]2O [Paclitaxel] | 25.3
20 | CN1CC[C@H](c2c(O)cc(O)c3c(=O)cc(-c4ccccc4Cl)oc23)[C@H](O)C1 [Alvocidib] | 17.3
21 | COc1cccc2c1C(=O)c1c(O)c3c(c(O)c1C2=O)C[C@@](O)(C(=O)CO)C[C@@H]3O[C@H]1C[C@H](N)[C@@H](O)[C@H](C)O1 [Epirubicin] | 7.8
22 | Cc1cc(-c2nc(-c3ccc(OC(F)(F)F)cc3)no2)nn1Cc1ccnc(N2CCN(C3CC3)CC2)c1 | 20.3
23 | CCN(CC)CCNC(=O)c1c(C)[nH]c(/C=C2\C(=O)Nc3ccc(-c4csc(-c5ccccc5)n4)cc32)c1C [Amcasertib] | 7.5
24 | COc1cc(Nc2ncc(F)c(Nc3ccc4c(n3)N(COP(=O)(O)O)C(=O)C(C)(C)O4)n2)cc(OC)c1OC [Fostamatinib] | 0.5

Tested on: SK-N-AS
Assay: drug sensitivity score (DSS) in combination with SL-176 (DSS (score)); neuroblastoma lines; SL-176 and GSK2830371 are WIP1 inhibitors; higher = more cytotoxic; extreme values may be limits of the assay
Conditions: 72 h; co-treatment: SL-176 11.2 uM (IC25 in IMR-32)

Row | SMILES | drug sensitivity score
25 | S=c1[nH]cnc2nc[nH]c12 [Mercaptopurine] | 7.4
26 | CC[C@H](C)C(=O)O[C@H]1C[C@H](O)C=C2C=C[C@H](C)[C@H](CC[C@@H](O)C[C@@H](O)CC(=O)O)[C@H]21 [Pravastatin] | 0
27 | NC(=S)N/N=C/c1ncccc1N [Triapine] | 2
28 | CC[C@H](Nc1ncnc2[nH]cnc12)c1nc2cccc(F)c2c(=O)n1-c1ccccc1 [Idelalisib] | 0.1
29 | CC1(C)CNc2cc(NC(=O)c3cccnc3NCc3ccncc3)ccc21 [Motesanib] | 0.1
30 | Cc1cnc(-c2ccccc2C(C)C)nc1NCc1ccc(-n2ccnn2)cc1 | 0
31 | Cc1ccc(-n2nc(C(C)(C)C)cc2NC(=O)Nc2ccc(OCCN3CCOCC3)c3ccccc23)cc1 [Doramapimod] | 2.4
32 | COc1cc2nccc(Oc3ccc(NC(=O)Nc4cc(C)on4)c(Cl)c3)c2cc1OC [Tivozanib] | 2.4
33 | O=c1sn(-c2cccc3ccccc23)c(=O)n1Cc1ccccc1 [Tideglusib] | 0
34 | CC(C)(O)CC(=O)NCCn1ccc2ncnc(Nc3ccc(Oc4cccc(C(F)(F)F)c4)c(Cl)c3)c21 | 0.3
35 | Cc1c(-c2c(-c3ccc(F)o3)sc3ncnc(O[C@H](Cc4ccccc4OCc4ccnn4CC(F)(F)F)C(=O)O)c23)ccc(OCCN2CCN(C)CC2)c1Cl | 3.3
36 | Cn1cc(-c2ccc(F)c(C(F)(F)F)c2)nc1C1CCN(c2ncnc3[nH]ncc23)CC1 | 0
37 | Nc1nc(NC2CC2)cc(-c2cccc(Cl)c2Cl)n1 | 9.5
38 | CNC(=O)c1cc(COc2nnc(Nc3ccc(Cl)cc3)c3ccoc23)ccn1 [Telatinib] | 0
39 | Nc1ncnc2c1c(COc1cccc(Cl)c1)nn2C1CCOCC1 | 0
40 | CCOc1ccn(-c2ccc(F)cc2)c(=O)c1C(=O)Nc1ccc(Oc2ccnc(N)c2Cl)c(F)c1 | 0
41 | NC(=O)c1cccc(-c2cccc(OC(=O)NC3CCCCC3)c2)c1 | 0
42 | CN(C(=O)c1ccc(F)cc1C(F)(F)F)C1CCN(c2nnc(-c3ccnn3C)c3ccccc23)CC1 [Taladegib] | 0
43 | C[C@]1(c2nc3c(C(N)=O)cccc3[nH]2)CCCN1 [Veliparib] | 0

Row | SMILES | drug sensitivity score
44 | Nc1ncn([C@@H]2O[C@H](CO)[C@@H](O)[C@H]2O)c(=O)n1 [Azacitidine] | 5.1
45 | O=C(O)c1ccc(CN2CCC(CN[C@@H]3C[C@H]3c3ccccc3)CC2)cc1 | 0
46 | CN(C)Cc1c(C(=O)NCCOc2ccc(C(=O)NO)cc2)oc2ccccc12 [Abexinostat] | 17.6
47 | CCCCNc1ncc(C(=O)NCc2ccc(-n3ccnc3)cc2)c(NC2CCC(O)CC2)n1 (configuration not stated) | 1.9
48 | CN(C)C(=O)c1cc2cnc(Nc3ccc(N4CCNCC4)cn3)nc2n1C1CCCC1 [Ribociclib] | 5
49 | Cc1ccc(NS(=O)(=O)c2cccc(C#N)c2)c2[nH]cc(C#N)c12 | 19.9
50 | COc1cccc2c1C(=O)c1c(O)c3c(c(O)c1C2=O)C[C@@](O)(/C(CO)=N/NC(=O)CCCCCN1C(=O)C=CC1=O)C[C@@H]3O[C@H]1C[C@H](N)[C@H](O)[C@H](C)O1 [Aldoxorubicin] | 7
51 | NC1(c2ccc(-c3nc4ccn5c(=O)[nH]nc5c4cc3-c3ccccc3)cc2)CCC1 | 0.9
52 | O=C(/C=C/c1cccnc1)NCCCCC1CCN(C(=O)c2ccccc2)CC1 [Daporinad] | 28.6
53 | CCN(CC)CCNC(=O)c1c(C)[nH]c(/C=C2\C(=O)Nc3ccc(F)cc32)c1C [Sunitinib] | 1.5
54 | CNCc1ccc(-c2[nH]c3cc(F)cc4c3c2CCNC4=O)cc1 [Rucaparib] | 0.1
55 | Cc1cc(F)c(C(=O)Nc2cccc(-c3nncn3C(C)C)n2)cc1-n1cnc(C2CC2)c1 [Selonsertib] | 0
56 | C[C@@H]1CN(Cc2ccc(F)cc2)[C@@H](C)CN1C(=O)c1cc2c(C(=O)C(=O)N(C)C)cn(C)c2cc1Cl [Talmapimod] | 0
57 | CC(=O)O[C@H]1C(=O)[C@@]2(C)[C@H]([C@H](OC(=O)c3ccccc3)[C@]3(O)C[C@H](OC(=O)[C@H](O)[C@@H](NC(=O)c4ccccc4)c4ccccc4)C(C)=C1C3(C)C)[C@]1(OC(C)=O)CO[C@@H]1C[C@@H]2O [Paclitaxel] | 24.3
58 | CN1CC[C@H](c2c(O)cc(O)c3c(=O)cc(-c4ccccc4Cl)oc23)[C@H](O)C1 [Alvocidib] | 19.1
59 | COc1cccc2c1C(=O)c1c(O)c3c(c(O)c1C2=O)C[C@@](O)(C(=O)CO)C[C@@H]3O[C@H]1C[C@H](N)[C@@H](O)[C@H](C)O1 [Epirubicin] | 5.8
60 | Cc1cc(-c2nc(-c3ccc(OC(F)(F)F)cc3)no2)nn1Cc1ccnc(N2CCN(C3CC3)CC2)c1 | 17.4
61 | CCN(CC)CCNC(=O)c1c(C)[nH]c(/C=C2\C(=O)Nc3ccc(-c4csc(-c5ccccc5)n4)cc32)c1C [Amcasertib] | 10.9
62 | COc1cc(Nc2ncc(F)c(Nc3ccc4c(n3)N(COP(=O)(O)O)C(=O)C(C)(C)O4)n2)cc(OC)c1OC [Fostamatinib] | 0.9
